Results taken from the supplement of paper PMC8728848.
The list shows a part of the results.

How the values were obtained:
Test in all cases: glycan array binding signal (z-score within array); higher = stronger binding
Conditions in all cases: glycan notation: IUPAC condensed, linker removed
[1] = biological target: Gal(a1-3)Gal(b1-3)GlcNAc(b1-3)GalNAc
How it was run: (§1)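 The binding signal is a Z-score computed within each array and averaged over linkers. Arrays of the same protein sequence at different concentrations or buffers were also averaged together. Data originate from 3228 arrays in the Consortium for Functional Glycomics database, kept only where the protein sequence was available.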

[2] = biological target: Gal(a1-3)Gal(b1-3)GlcNAc(b1-6)GalNAc
How it was run: as §1

[3] = biological target: Gal(a1-3)Gal(b1-3)[Fuc(a1-4)]GlcNAc(b1-2)Man(a1-3)[Gal(a1-3)Gal(b1-3)[Fuc(a1-4)]GlcNAc(b1-2)Man(a1-6)]Man(b1-4)GlcNAc(b1-4)GlcNAc
How it was run: as §1

[4] = biological target: Gal(a1-3)Gal(b1-4)Glc
How it was run: as §1

[5] = biological target: Gal(a1-3)Gal(b1-4)GlcNAc
How it was run: as §1

[6] = biological target: Gal(a1-3)Gal(b1-4)GlcNAc(b1-3)GalNAc
How it was run: as §1

[7] = biological target: Gal(a1-3)Gal(b1-4)GlcNAc(b1-6)GalNAc
How it was run: as §1

[8] = biological target: Gal(a1-3)Gal(b1-4)[Fuc(a1-3)]GlcNAc
How it was run: as §1

[9] = biological target: Gal(a1-3)Gal(b1-4)[Fuc(a1-3)]GlcNAc(b1-2)Man(a1-3)[Gal(a1-3)Gal(b1-4)[Fuc(a1-3)]GlcNAc(b1-2)Man(a1-6)]Man(b1-4)GlcNAc(b1-4)GlcNAc
How it was run: as §1

[10] = biological target: Gal(a1-3)GalNAc
How it was run: as §1

[11] = biological target: Gal(a1-3)[Gal(a1-4)]Gal(b1-4)GlcNAc
How it was run: as §1

[12] = biological target: Gal(a1-4)Gal(b1-3)GlcNAc(b1-2)Man(a1-3)[Gal(a1-4)Gal(b1-3)GlcNAc(b1-2)Man(a1-6)]Man(b1-4)GlcNAc(b1-4)GlcNAc
How it was run: as §1

[13] = biological target: Gal(a1-4)Gal(b1-4)Glc
How it was run: as §1

[14] = biological target: Gal(a1-4)Gal(b1-4)GlcNAc
How it was run: as §1

[15] = biological target: Gal(a1-4)Gal(b1-4)GlcNAc(b1-2)Man(a1-3)[Gal(a1-4)Gal(b1-4)GlcNAc(b1-2)Man(a1-6)]Man(b1-4)GlcNAc(b1-4)GlcNAc
How it was run: as §1

[16] = biological target: Gal(a1-4)Gal(b1-4)GlcNAc(b1-3)Gal(b1-4)Glc
How it was run: as §1

[17] = biological target: Gal(a1-4)GlcNAc
How it was run: as §1

[18] = biological target: Gal(a1-6)Glc
How it was run: as §1

[19] = biological target: Gal(b1-2)Gal
How it was run: as §1

[20] = biological target: Gal(b1-3)Gal
How it was run: as §1

[21] = biological target: Gal(b1-3)Gal(b1-4)GlcNAc
How it was run: as §1

[22] = biological target: Gal(b1-3)Gal(b1-4)GlcNAc(b1-2)Man(a1-3)[Gal(b1-3)Gal(b1-4)GlcNAc(b1-2)Man(a1-6)]Man(b1-4)GlcNAc(b1-4)GlcNAc
How it was run: as §1

[23] = biological target: Gal(b1-3)GalNAc
How it was run: as §1

[24] = biological target: Gal(b1-3)GalNAc(a1-3)[Fuc(a1-2)]Gal(b1-4)Glc
How it was run: as §1

[25] = biological target: Gal(b1-3)GalNAc(a1-3)[Fuc(a1-2)]Gal(b1-4)GlcNAc
How it was run: as §1

[26] = biological target: Gal(b1-3)GalNAc(b1-3)Gal(a1-4)Gal(b1-4)Glc
How it was run: as §1

[27] = biological target: Gal(b1-3)GalNAc(b1-4)Gal(b1-4)Glc
How it was run: as §1

[28] = biological target: Gal(b1-3)GalNAc(b1-4)[Neu5Ac(a2-3)]Gal(b1-4)Glc
How it was run: as §1

[29] = biological target: Gal(b1-3)GlcNAc
How it was run: as §1

[30] = biological target: Gal(b1-3)GlcNAc(a1-3)Gal(b1-4)GlcNAc
How it was run: as §1

[31] = biological target: Gal(b1-3)GlcNAc(a1-6)Gal(b1-4)GlcNAc
How it was run: as §1

[32] = biological target: Gal(b1-3)GlcNAc(b1-2)Man(a1-3)[Gal(b1-3)GlcNAc(b1-2)Man(a1-6)]Man(b1-4)GlcNAc(b1-4)GlcNAc
How it was run: as §1

[33] = biological target: Gal(b1-3)GlcNAc(b1-2)Man(a1-3)[Gal(b1-3)GlcNAc(b1-2)Man(a1-6)]Man(b1-4)GlcNAc(b1-4)[Fuc(a1-6)]GlcNAc
How it was run: as §1

[34] = biological target: Gal(b1-3)GlcNAc(b1-2)Man(a1-3)[GlcNAc(b1-4)][Gal(b1-3)GlcNAc(b1-2)Man(a1-6)]Man(b1-4)GlcNAc(b1-4)GlcNAc
How it was run: as §1

[35] = biological target: Gal(b1-3)GlcNAc(b1-2)[Gal(b1-3)GlcNAc(b1-6)]Man(a1-6)[Gal(b1-3)GlcNAc(b1-2)Man(a1-3)]Man(b1-4)GlcNAc(b1-4)GlcNAc
How it was run: as §1

[36] = biological target: Gal(b1-3)GlcNAc(b1-3)Gal(b1-3)GlcNAc
How it was run: as §1

[37] = biological target: Gal(b1-3)GlcNAc(b1-3)Gal(b1-4)Glc
How it was run: as §1

[38] = biological target: Gal(b1-3)GlcNAc(b1-3)Gal(b1-4)GlcNAc
How it was run: as §1

B1: Calsepa (Calystegia sepium), P93114 (protein)
chain: MAVPMDTISGPWGNNGGNFWSFRPVNKINQIVISYGGGGNNPIALTFSSTKADGSKDTITVGGGGPDSITGTEMVNIGTDEYLTGISGTFGIYLDNNVLRSITFTTNLKAHGPYGQKVGTPFSSANVVGNEIVGFLGRSGYYVDAIGTYNRHK
[1]
  glycan array binding signal (z-score): -0.272
[2]
  glycan array binding signal (z-score): -0.269
[3]
  glycan array binding signal (z-score): -0.189
[4]
  glycan array binding signal (z-score): -0.261
[5]
  glycan array binding signal (z-score): -0.244
[6]
  glycan array binding signal (z-score): -0.269
[7]
  glycan array binding signal (z-score): -0.267
[8]
  glycan array binding signal (z-score): -0.238
[9]
  glycan array binding signal (z-score): -0.165
[10]
  glycan array binding signal (z-score): -0.247
[11]
  glycan array binding signal (z-score): -0.25
[12]
  glycan array binding signal (z-score): 0.839
[13]
  glycan array binding signal (z-score): -0.252
[14]
  glycan array binding signal (z-score): -0.251
[15]
  glycan array binding signal (z-score): 3.47
[16]
  glycan array binding signal (z-score): -0.248
[17]
  glycan array binding signal (z-score): -0.247
[18]
  glycan array binding signal (z-score): -0.246
[19]
  glycan array binding signal (z-score): -0.252
[20]
  glycan array binding signal (z-score): -0.247
[21]
  glycan array binding signal (z-score): -0.247
[22]
  glycan array binding signal (z-score): 3.79
[23]
  glycan array binding signal (z-score): -0.246
[24]
  glycan array binding signal (z-score): -0.209
[25]
  glycan array binding signal (z-score): -0.222
[26]
  glycan array binding signal (z-score): -0.249
[27]
  glycan array binding signal (z-score): -0.252
[28]
  glycan array binding signal (z-score): -0.253
[29]
  glycan array binding signal (z-score): -0.249
[30]
  glycan array binding signal (z-score): -0.254
[31]
  glycan array binding signal (z-score): -0.271
[32]
  glycan array binding signal (z-score): 1.8
[33]
  glycan array binding signal (z-score): -0.077
[34]
  glycan array binding signal (z-score): 4.21
[35]
  glycan array binding signal (z-score): 0.886
[36]
  glycan array binding signal (z-score): -0.249
[37]
  glycan array binding signal (z-score): -0.252
[38]
  glycan array binding signal (z-score): -0.25
